Results reported in PubChem BioAssay AID1963576 (National Center for Advancing Translational Sciences (NCATS), 2024).
Among all 46,000 compounds or so, about 60 (0.1%) were called active. Not shown: some 3% with an inconclusive outcome. Calls come from the whole dose curve; as a rule, active = well fitted inhibition curve with a large enough effect; inconclusive = small, poorly fitted or top-dose-only effect; inactive = no such curve, though single readings can be large or run the other way. The list shows a part of the results.

Test: Primary qHTS assay for Inhibitors of ovarian cancer metastasis using an organotypic tumor microenvironment (TME) model.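 For activity change, negative = inhibition: plate controls were DMSO wells for no effect and tomatine positive control wells for full effect.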 Note: nearly all actives have a fitted effect of over 65% in size.
Conditions: SKOV3ip1-GFP adhesion/invasion on 3D omental model, fluorescence; series mostly up to 45.8 µM; activity change, negative = inhibition: at the top concentration
Outline: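 qHTS, 4-pt dose (0.36-46 umol/L); SKOV3ip1-GFP, 1,200 cells/well, no FBS; primary omental fibroblast/mesothelial co-culture 48 h pre-grown; 2 h RT + 16 h 37 C; PBS wash, 4% PFA; GFP count 488/509 nm.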

| Compound | outcome | activity change, negative = inhibition |
| --- | --- | --- |
| Cc1ccc(C)c(NC(=O)CSc2nnc(-c3cc4occc4n3C)n2-c2ccccc2C)c1 | inactive |  |
| Cc1ccc(NC(=O)CCCn2c(=O)c3cccn3c3cccnc32)cc1C |  | inactive: 5.19% |
| CCc1ccccc1NC(=O)[C@@H](c1ccccc1)N1Cc2ccccc2C1=O | inactive |  |
| Cc1ccc(NS(=O)(=O)c2cc3[nH]c(=O)c(=O)[nH]c3cc2C)cc1N(C)C |  | inactive: 6.14% |
| Cc1ccc(CNC(=O)CSc2ncc3c(n2)-c2ccc(Cl)cc2N(Cc2ccccc2)S3(=O)=O)cc1 |  | inactive: 19.7% |
| CCCCn1c(SCC(=O)Nc2ccc(OCC)cc2)nc2ccsc2c1=O | inactive |  |
| COc1cc(OC)c(NC(=O)c2noc3c2CSc2ccccc2-3)cc1Cl |  | inactive: -3.91% |
| CC(=O)c1ccc(N2CCN(C(=O)CCc3nnc4n(C)c(=O)c5sccc5n34)CC2)cc1 |  | inactive: 37.5% |
| CC(C)(C)OC(=O)N1CCC(c2c(C(=O)N3CCCCC3)cnn2-c2cccc(F)c2)CC1 |  | inactive: 1.77% |
| O=C(Nc1ccc(Br)cc1F)N1CCC(CN2CCc3ccccc3C2)CC1 |  | inactive: 4.03% |
| COC(=O)c1cc(Cl)ccc1NC(=O)CSc1ncc(S(=O)(=O)c2ccc(Br)cc2)c(=O)[nH]1 | inactive |  |
| COc1ccc(C(=O)COC(=O)CCCC(=O)Nc2cc(C(F)(F)F)ccc2Cl)cc1 |  | inactive: 20.1% |
| CC1(C)CC(=O)c2c(oc3c(Cl)cc(NS(=O)(=O)c4ccc(Br)cc4)cc23)C1 |  | inactive: 11.1% |
| CC(=O)N1CCc2c(sc3c2c(=O)n(-c2cc(Cl)ccc2C)c(=O)n3Cc2ccccc2F)C1 | inactive |  |
| CC(C)CC(=O)Nc1ccccc1OCc1cc(=O)n2ccccc2n1 |  | inactive: -18.3% |
| CCC(C)NC(=O)c1ccc2nc(CCc3ccccc3)oc2c1 (stereo unspecified) |  | inactive: 5.68% |
| Cc1ccc(NC(=O)C(=O)NCC(c2ccc3c(c2)OCO3)N2CCOCC2)cc1C (stereo unspecified) |  | inactive: 5.24% |
| COc1ccccc1CNC(=O)c1ccc(-c2nc(CS(=O)(=O)c3ccc(C)cc3)c(C)o2)cc1 |  | inactive: -4.11% |
| O=C(NCCc1ccc(Cl)cc1)c1cc(-c2ccc(Cl)cc2)n[nH]1 |  | inactive: 2.3% |
| Cc1ccc(CNC(=O)CCCc2nnc3n(C)c(=O)c4sccc4n23)cc1 |  | inactive: 7.45% |
| CCCCOC(=O)c1ccc(NC(=O)c2cc(-c3cccs3)on2)cc1 | inactive |  |

| Compound | outcome | activity change, negative = inhibition |
| --- | --- | --- |
| CCOC(=O)c1c(NC(=O)/C=C/c2ccc(C)cc2)sc2c1CCCC2 |  | inactive: 5.21% |
| Cc1ccc(Nc2c(-c3ccc(C)s3)nc3ncccn23)cc1 |  | inactive: 0.521% |
| COc1ccc(OCC(=O)OCc2cc(=O)n3nc(C4CC4)sc3n2)cc1 |  | inactive: -0.802% |
| Cc1cccc(OCC(=O)Nc2ccccc2C(=O)OCc2cc(=O)n3nc(C)sc3n2)c1 | inactive |  |
| O=c1[nH]c2ccc(NCc3ccc(-c4ccccc4)o3)cc2[nH]1 |  | inactive: 7.66% |
| CC1=C(C(=O)Nc2ccccc2)C(c2cccc(Cl)c2)n2nc(SCC(=O)c3ccc(C)cc3)nc2N1 (stereo unspecified) |  | inactive: 0.646% |
| O=C(CSc1nc(-c2ccccc2)nc2c1Cc1ccccc1O2)N1CCCCC1 |  | inactive: -0.639% |
| CCOc1ccc(NC(=O)CCCc2nnc3n(C)c(=O)c4sccc4n23)cc1 | inactive |  |
| O=C(NCc1ccccc1F)C(=O)NCC(c1ccco1)S(=O)(=O)c1cccs1 (stereo unspecified) | inactive |  |
| Cc1ccc(CCNC(=O)c2cc3c(-c4ccccc4F)nn(C)c3s2)cc1 | inactive |  |
| COc1ccc(OC)c(NC(=O)c2cn(CC(C)C)c(=O)c3cc(OC)c(OC)cc23)c1 |  | inactive: 35.1% |
| O=C(Nc1ccc2oc(-c3ccc4ccccc4c3)nc2c1)c1ccc(Cl)c(Cl)c1 |  | inactive: 3.77% |
| CCN(c1ccccc1)S(=O)(=O)c1ccc(NC(=O)c2cc(=O)c3ccccc3o2)cc1 |  | inactive: 6.1% |
| O=C(Nc1ccc(C(=O)OCc2cc(=O)n3nc(C4CC4)sc3n2)cc1)c1cccc(F)c1 |  | inactive: -0.0947% |
| Fc1ccc(Nc2ncnc3c2nc2n3CCCCC2)c(F)c1 |  | inactive: -8.13% |
| CCOc1ccc(-c2oc3ccc(C)cc3c(=O)c2O)cc1 |  | inactive: -2.02% |
| CCCc1nnc(NC(=O)c2cc(=O)c3cc(C)c(C)cc3o2)s1 |  | inactive: 9.19% |
| CCC(=O)N1CCc2cc(Br)cc(S(=O)(=O)CCC(=O)N3CCN(c4cc(C)ccc4C)CC3)c21 |  | inactive: 6.89% |
| CCOC(=O)c1cnc2ccc(C)cc2c1Nc1ccc(N(CC)CC)cc1 |  | inactive: -26.4% |
| Cc1c(C(=O)OC2CCCCC2)[nH]c2c1C(=O)CC(c1ccc(C(C)(C)C)cc1)C2 (stereo unspecified) |  | inactive: 7.99% |
| CCOC(=O)c1cc(-c2ccc(OC)cc2)n(CCC(=O)NC2CCCCC2)c1C |  | inactive: -4.71% |

| Compound | outcome | activity change, negative = inhibition |
| --- | --- | --- |
| CCOC(=O)c1c(S(=O)(=O)N2CCC(C(=O)Nc3ncccc3C)CC2)c(C)n(C)c1C |  | inactive: -0.518% |
| COc1ccc2c(CNC3CCCCCC3)c(C(=O)O)n(Cc3ccccc3F)c2c1 |  | inactive: 7.43% |
| O=C(Nc1ccc(F)cc1)C1CCN(S(=O)(=O)c2ccc3c(c2)CCCN3C(=O)C2CCC2)CC1 |  | inactive: -11.3% |
| COc1ccccc1C(=O)Nc1ccc(C(=O)OCc2cc(=O)n3ccsc3n2)cc1 |  | inactive: 2.54% |
| COc1cccc(CSc2nc3n(n2)C(c2cccnc2)C(C(=O)Nc2ccccc2C)=C(C)N3)c1 (stereo unspecified) | inactive |  |
| COc1ccc(-c2ccc3c(N)c(C(=O)Nc4cccc(C)c4)sc3n2)cc1 | inactive |  |
| CC1=C(C(=O)NCc2ccc(Cl)cc2)C2(CCCCCC2)OC1=O |  | inactive: -6.71% |
| COc1ccccc1C(=O)NC(=O)Nc1ccc(-n2nc(C(F)(F)F)cc2C(F)(F)F)cc1 |  | inactive: 2.66% |
| Cc1ccc(N2CC(NC(=O)CCc3ccccc3)CC2=O)cc1 (stereo unspecified) |  | inactive: -2.96% |
| Cc1cccc(N2CCN(C(=O)Cn3c(=O)c4cccn4c4ccc(F)cc43)CC2)c1C |  | inactive: -3.48% |
| CCOC(=O)CCn1nc(C)c2c(C)n(-c3ccccc3)nc2c1=O |  | inactive: -5.22% |
| CCOC(=O)c1sc(NC(=O)c2cc3nc(-c4ccc(Br)cc4)cc(C(F)(F)F)n3n2)c(C(=O)OCC)c1C | inactive |  |
| Cc1nc2cc(C(=O)O)ccc2n1-c1ccc(C(C)C)cc1 |  | inactive: -0.413% |
| N#Cc1ccc(NS(=O)(=O)c2ccc(-c3cnc(C4CC4)o3)cc2)cc1 | inactive |  |
| COc1ccc(OC)c(CNC(=O)CN2C(=O)CCn3nc(-c4cn(C)c5ccccc45)cc32)c1 |  | inactive: 11.7% |
| Cc1nc2nc(SCC(=O)NCc3ccccc3)nn2c(C)c1Cc1ccccc1 |  | inactive: 0.294% |
| CC(C)CC(=O)Nc1ccc(Cl)c(-c2nc3ccccc3[nH]2)c1 |  | inactive: 1.94% |
| Cc1ccc(NC(=O)c2ccc(Br)cc2)c(C(=O)c2ccccc2)c1 |  | inactive: 6.39% |
| Cc1ccc(NC(=O)CCc2c(C)nc3nc(C)nn3c2C)c(Cl)c1 | inactive |  |
